Measured values as given in publication PMC4336329 (PLoS ONE, 2015).
Screen size: about 310,000 compounds; about 2,200 (0.71%) showed an effect of 50% or more. Effects have a minus sign here. Some of the results follow.

The compounds below were run against human ether-à-go-go-related gene (hERG) potassium channel (human, UniProt Q12809) (assay: primary screen, population patch clamp on CHO cells stably expressing hERG).
human ether-à-go-go-related gene (hERG) potassium channel, sequence (Q12809 whole entry, looked up): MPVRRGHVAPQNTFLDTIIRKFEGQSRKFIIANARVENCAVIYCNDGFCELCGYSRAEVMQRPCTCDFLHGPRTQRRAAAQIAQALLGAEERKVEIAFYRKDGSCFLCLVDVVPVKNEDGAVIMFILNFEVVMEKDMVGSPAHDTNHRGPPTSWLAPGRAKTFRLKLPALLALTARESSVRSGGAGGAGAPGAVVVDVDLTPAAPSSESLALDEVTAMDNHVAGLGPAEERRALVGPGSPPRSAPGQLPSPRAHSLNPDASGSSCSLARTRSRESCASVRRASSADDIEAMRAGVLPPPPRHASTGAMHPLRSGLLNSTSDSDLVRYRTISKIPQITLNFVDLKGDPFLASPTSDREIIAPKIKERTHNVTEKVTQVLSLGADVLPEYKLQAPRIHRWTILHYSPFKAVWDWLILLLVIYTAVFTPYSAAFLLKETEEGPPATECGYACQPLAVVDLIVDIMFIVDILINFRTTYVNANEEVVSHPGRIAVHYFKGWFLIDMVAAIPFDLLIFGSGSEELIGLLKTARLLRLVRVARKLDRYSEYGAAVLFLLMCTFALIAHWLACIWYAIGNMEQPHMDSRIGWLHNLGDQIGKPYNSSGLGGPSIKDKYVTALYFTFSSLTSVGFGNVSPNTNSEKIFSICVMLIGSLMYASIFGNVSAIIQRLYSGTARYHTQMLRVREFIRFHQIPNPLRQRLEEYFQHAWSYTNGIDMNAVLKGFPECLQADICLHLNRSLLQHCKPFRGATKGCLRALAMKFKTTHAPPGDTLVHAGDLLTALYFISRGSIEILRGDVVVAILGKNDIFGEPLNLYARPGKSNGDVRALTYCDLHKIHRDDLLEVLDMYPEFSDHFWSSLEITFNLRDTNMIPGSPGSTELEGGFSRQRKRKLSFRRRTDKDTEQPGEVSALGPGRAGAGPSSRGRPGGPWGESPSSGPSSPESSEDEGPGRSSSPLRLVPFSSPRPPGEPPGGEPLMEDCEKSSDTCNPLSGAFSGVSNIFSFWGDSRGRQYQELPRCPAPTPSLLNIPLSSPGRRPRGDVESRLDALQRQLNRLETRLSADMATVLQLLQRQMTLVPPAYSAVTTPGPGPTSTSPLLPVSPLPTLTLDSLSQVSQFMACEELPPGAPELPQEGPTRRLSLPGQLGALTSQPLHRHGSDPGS

| Structure (SMILES) | hERG current change (%, negative = inhibition) at 1uM |
| --- | --- |
| CCN(CC)C(=O)CSc1nc2ccccc2c(=O)n1-c1cccc(OC)c1 | 2.18% |
| Cc1cc(C)nc(NS(=O)(=O)c2ccc(NS(=O)(=O)c3ccc(C#N)cc3)cc2)n1 | 8.67% |
| COC(=O)CCSCC(=O)N1N=C(c2ccc(Br)cc2)CC1c1cccc(OC)c1OC (stereo not shown) | 16.6% |
| O=C(CN1CCCN(Cc2ccc(F)cc2)S1(=O)=O)NC1CCCC1 | 9.24% |
| COC(=O)c1sc2nc(CSc3ccc(Br)cc3)[nH]c(=O)c2c1C | 13.3% |
| Cc1ccc(CNC(=S)Nc2ccc(C)c([N+](=O)[O-])c2)cc1 | 12.2% |
| CCCCn1c(-c2ccccc2)nnc1-c1ccccc1 | -5.97% |
| Cc1cccc(C(=O)NCc2nnc(SCC(=O)NC(C)c3ccccc3)n2C)c1 (stereo not shown) | 13.3% |
| COc1ccc(Br)cc1CNC(=O)C1CCN(c2nnc(N3CCCC3=O)s2)CC1 | 16.7% |
| COCCN(C(=O)Nc1ccccc1)c1ccccc1 | 11.3% |
| Cn1c(SCc2nnc(-c3ccc(F)cc3)o2)nnc1C1COc2ccccc2O1 (stereo not shown) | -22.2% |
| CS(=O)(=O)N(CC(=O)NCc1ccco1)c1cccc([N+](=O)[O-])c1 | -0.556% |
| Cc1ccc(Cl)cc1N1CCN(C(CC(C)C)c2nnnn2CC2CCCO2)CC1 (stereo not shown) | 13.8% |
| Cl.Nc1ccc(O)c2ccccc12 | 18.7% |
| Cc1nc2ccccn2c1C(=O)NCc1cccnc1 | 8.09% |
| O=C(CSCc1c(F)cccc1Cl)NCCSCc1ccco1 | 8.74% |
| COc1ccc(N2CCN(C(c3cccc(OC)c3OC)c3nnnn3C3CCCC3)CC2)cc1.Cl (stereo not shown) | 10.1% |
| COc1ccc(S(=O)(=O)N2CCCC(C(=O)NCCC3=CCCCC3)C2)cc1 (stereo not shown) | 6.97% |
| CCN(CC)CC(O)Cn1c2ccccc2c2ccccc21 (stereo not shown) | 5.23% |
| CC1(OC(=O)CCc2ccccc2)C(=O)C=C2C=C(c3ccc(C#N)cc3)N(Cc3ccco3)C=C2C1=O (stereo not shown) | 1.55% |
| CCc1nc2ccccc2nc1N1CCN(S(=O)(=O)c2ccccc2)CC1 | 11.9% |
| COc1ccc(CN(C)C(=O)COC(=O)c2c(-c3ccccc3Cl)noc2C)cc1 | 0.987% |

| Structure (SMILES) | hERG current change (%, negative = inhibition) at 1uM |
| --- | --- |
| CCC(C)(C)NC(=O)C(c1ccccn1)N(C(=O)c1csnn1)c1ccc(C)cc1 (stereo not shown) | -3.03% |
| O=C(CSc1nnc(NC2CC2)s1)NN1C(=O)NC2(CCCCC2)C1=O | -3.09% |
| CCCC(=O)Nc1nc(-c2ccccc2)ns1 | -1.24% |
| Cc1ccc(S(=O)(=O)N(C)Cc2ccc(C(=O)NN=C3C4CC5CC(C4)CC3C5)cc2)cc1 | 15.7% |
| COc1c(C)cccc1C(=O)Nc1cc(-c2nn3c(C)nnc3s2)ccc1C | 5.17% |
| CC(=O)N1CCn2c3ccc(C)cc3c3cccc1c32 | -0.708% |
| CC1CCCCN1CCn1c(=S)[nH]c2ncccc2c1=O (stereo not shown) | 7.28% |
| COc1cc(/C=C(\C#N)C(=O)NC2CCCCC2)ccc1OCc1ccc(C(=O)O)cc1 | 4.19% |
| O=[N+]([O-])c1ccc(-c2ccc(/C=N/Nc3nc(NCc4ccccc4)nc(N4CCOCC4)n3)o2)cc1 | 3.24% |
| COc1ccc2c(C)cc(SCC(=O)NCC3CCCO3)nc2c1 (stereo not shown) | -2.57% |
| CCOc1[nH]n(-c2ccc(Cl)cc2)c(=O)c1C=NCc1cccnc1 | -3.73% |
| COC(=O)c1c(C)nc2nonc2c1N | 12.4% |
| CCOC(=O)c1sc(NC(=O)CSc2ncn(-c3ccccc3)n2)nc1C | 7.04% |
| O=C1CCN(C(=O)Nc2ccccc2)N1 | 20.4% |
| COc1cccc(/C=N/NC(=O)c2nnn(-c3nonc3N)c2C(C)C)c1OCc1ccc(F)cc1 | 20.8% |
| O=C(COC(=O)c1cccnc1Cl)c1ccc(OC(F)F)cc1 | 8.73% |
| Cc1ccc(-n2c(SCC(=O)N3CCOCC3)nnc2-c2cccnc2)cc1C | 1.52% |
| COc1ccc(NCC(=O)Nc2ccccc2C#N)cc1Cl | -2.15% |
| CC(=O)NCC(=O)OCC(=O)Nc1ccc(C(C)=O)cc1 | 5.9% |
| O=C(NCCO)/C(=C\c1cccs1)NC(=O)c1cccs1 | 11.1% |
| CC(C)CCNC(=O)c1nn(Cc2ccccc2)c(=O)c2ccccc12 | 9.89% |
| O=C(NCC1COc2ccccc2O1)C1CCCN(S(=O)(=O)c2cnc[nH]2)C1 (stereo not shown) | 7.43% |

| Structure (SMILES) | hERG current change (%, negative = inhibition) at 1uM |
| --- | --- |
| O=C(c1ccc2c3c(cccc13)CC2)C1CCCN(C(=O)c2cc[n+]([O-])cc2)C1 (stereo not shown) | 5.99% |
| Cc1ccc(-n2nnnc2-c2cnc3ccc(Cl)cc3c2-c2ccccc2)cc1 | -4.96% |
| O=C(N/N=C/c1cccnc1)c1cc(O)c(O)c(O)c1 | 17.4% |
| COc1ccc(S(=O)(=O)Nc2cccc(SC)c2)cc1OC | 4.22% |
| CCCn1c(=S)[nH]c2cc(C(=O)N3CCc4ccccc4C3)ccc2c1=O | 13.7% |
| O=C(Cc1ccccc1)N/N=C/c1ccccc1Cl | 4.81% |
| CSCC[C@H](NC(=O)[C@@H]1CSC2c3ccccc3C(=O)N21)C(=O)NC1CCCC1 (stereo partly shown) | 2.62% |
| CCOC(=O)Cn1nc(C)c(NC(=O)COc2cccc(Cl)c2)c1C | 4.07% |
| O=C(CSCc1ccccc1Cl)NN=C1CCCCCC1 | 3.24% |
| CN(C(=O)c1cccc(NC(=O)c2cccs2)c1)c1ccccc1 | 4.18% |
| Clc1ccc(OCCN2CCN(c3ncnc4sccc34)CC2)cc1 | -43.1% |
| C=CCN(Cc1ccc(Cl)s1)C(=O)CNC(=O)CNC(=O)c1ccc(Cl)cc1Cl | -35.4% |
| CC[C@H](C)/C=C/C1=CC2=C(Cl)C(=O)[C@@]3(C)OC(=O)C(C(=O)[C@H](C)[C@@H](C)O)=C3C2=CO1 | 17.2% |
| CCOC(=O)Cc1cc(=O)n2[nH]c(C)c(-c3ccccc3)c2n1 | 0.22% |
| COC(=O)COc1ccc(NC(=O)c2ccco2)cc1 | 13.5% |
| Cc1ccc(S(=O)(=O)N2CCCC2)cc1C(=O)N1CCN(Cc2ccccc2)CC1 | 3.33% |
| CC(=O)c1cccc(N(C(=O)Cn2nnc3ccccc32)C(C(=O)NCc2ccccc2)c2ccccn2)c1 (stereo not shown) | -0.747% |
| CN(CC(=O)Nc1ccccc1Cl)CC(=O)Nc1sc2c(c1C(N)=O)CCC2 | -24.7% |
| COc1cc(CCNC(=O)c2cnn3ccccc23)cc(OC)c1OC | 5.48% |
| COc1ccc(NC(=O)CN2CCN(S(=O)(=O)c3ccc(F)cc3)CC2)cc1Cl | 7.03% |
| O=C(O)/C=C/c1ccccc1Oc1ccc(Cl)cc1Cl | -1.05% |
| Cc1ccc(C(=O)CSc2nnc(C(C)C)n2C)cc1C | 7.82% |

| Structure (SMILES) | hERG current change (%, negative = inhibition) at 1uM |
| --- | --- |
| COc1ccc(COCC(CC(C)C)N2CCN(C(=O)c3cccc(C(F)(F)F)c3)CCC2=O)cc1 (stereo not shown) | 5.89% |
| CN(CC(=O)Nc1ccc(N2CCOCC2)cc1)C(=O)c1cccc(Cl)c1Cl | 12.4% |
| CC(=O)Oc1oc(-c2ccccc2)nc1C=Nc1ccc(N(C)C)cc1 | 13.8% |
| CSc1nc(C(=O)N2CCCC(Nc3ccc(C)c(C)c3)C2)cs1 (stereo not shown) | 4.37% |
| Cc1ccc2c(Cl)c(C(=O)NCC(c3ccco3)N3CCCC3)sc2c1 (stereo not shown) | 9.68% |
| CCN(CCNC(=O)C1CCN(S(=O)(=O)CC)CC1)c1ccccc1 | -5.82% |
| COc1ccc(-c2ccc(=O)n(CC(=O)Nc3cccc(O)c3)n2)cc1OC | 13.5% |
| Cc1noc(C)c1COc1ccccc1C(=O)NNC(=O)C(C)Oc1ccccc1F (stereo not shown) | -15.5% |
| COc1ccc(NC(=S)N=Nc2c(O)[nH]c3ccccc23)cc1 | 4.91% |
| CCN(C(=O)COC(=O)c1c(C)noc1C)C1CCS(=O)(=O)C1 (stereo not shown) | 8.32% |
| CN1C(=O)c2ccccc2C(C(=O)NCCCN2CCCC2=O)C1c1c[nH]c2ccccc12 (stereo not shown) | 6.9% |
| Cc1c(C)c2c(c(C)c1O)CC[C@@](C)(CCC[C@H](C)CCC[C@H](C)CCCC(C)C)O2 | 13.3% |
| CCOc1ccccc1OC(=O)c1ccco1 | 2.02% |
| O=C(CN1C(=O)COc2ccc(S(=O)(=O)N3CCOCC3)cc21)Nc1cccc(Cl)c1 | 11.6% |
| O=C(Nc1ccc(OC(=O)c2ccccc2)c(-c2nc3ccccc3s2)c1)c1ccccc1 | 20.6% |
| Cc1nnc(SCC(=O)Nc2cc(-c3cc(C)c(C)cc3C)nn2-c2ccccc2)s1 | -3.38% |
| CCn1c(C(=O)N2CCCC(C(=O)NCCc3ccc(C)cc3)C2)cc2sccc21 (stereo not shown) | -6.49% |
| Cc1nn(-c2ncc(C(F)(F)F)cc2Cl)c(=O)n1-c1cccc(F)c1 | 4.48% |
| C=CCNC(=O)C1CC(=O)N(c2ccc(OCc3ccc(F)cc3)cc2)C1 (stereo not shown) | 17.5% |
